Data reported in the supplement of paper PMC3334620.
Whole data set: some 33,000 sequences, median “E-score (-0.5 to 0.5)” near -0.012, cut for the highest 2% near 0.29. This is one part of the list.

Target: T1, Ybr033w (UniProt P38073)
T1 sequence: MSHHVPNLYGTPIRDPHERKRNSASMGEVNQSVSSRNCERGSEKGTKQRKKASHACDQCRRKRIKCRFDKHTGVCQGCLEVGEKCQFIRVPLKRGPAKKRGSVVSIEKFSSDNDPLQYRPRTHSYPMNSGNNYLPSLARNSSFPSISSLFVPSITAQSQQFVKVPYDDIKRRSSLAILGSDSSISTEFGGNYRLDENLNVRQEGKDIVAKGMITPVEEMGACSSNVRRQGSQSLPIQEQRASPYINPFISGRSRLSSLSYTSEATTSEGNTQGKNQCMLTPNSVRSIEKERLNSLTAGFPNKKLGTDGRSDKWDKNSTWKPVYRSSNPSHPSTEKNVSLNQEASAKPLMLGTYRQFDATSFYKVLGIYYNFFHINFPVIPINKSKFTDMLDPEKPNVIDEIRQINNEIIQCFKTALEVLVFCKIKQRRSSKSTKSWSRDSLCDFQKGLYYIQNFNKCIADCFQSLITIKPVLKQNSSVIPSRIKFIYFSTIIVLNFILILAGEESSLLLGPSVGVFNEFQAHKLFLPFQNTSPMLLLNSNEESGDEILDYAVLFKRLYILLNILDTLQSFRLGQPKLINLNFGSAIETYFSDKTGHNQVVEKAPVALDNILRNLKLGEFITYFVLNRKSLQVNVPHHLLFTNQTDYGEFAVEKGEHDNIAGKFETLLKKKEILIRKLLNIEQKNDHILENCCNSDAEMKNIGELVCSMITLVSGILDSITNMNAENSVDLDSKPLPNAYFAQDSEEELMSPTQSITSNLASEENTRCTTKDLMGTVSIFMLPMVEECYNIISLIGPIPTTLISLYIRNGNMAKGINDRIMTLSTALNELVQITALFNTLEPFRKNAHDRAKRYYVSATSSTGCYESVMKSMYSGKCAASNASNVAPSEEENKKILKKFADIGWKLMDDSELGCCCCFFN
Assay: PBM E-score (8-mer binding enrichment) (E-score (-0.5 to 0.5)); higher = stronger / more preferred TF binding; most listed sequences are background and not binding sites
Settings: protein concentration: 200 nM; construct: GST-full length
In short: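 Using PURExpress in vitro transcription/translation, GST-tagged yeast transcription factors were made in full-length or DNA-binding-domain form. These were applied at about 100-200 nM to double-stranded universal all-10-mer Agilent arrays, and bound protein was detected with fluorescent anti-GST. Scans were normalised with masliner before the Universal PBM Analysis Suite assigned E-scores to ungapped eight-base words pooled with their reverse complements.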

Row | Sequence | PBM E-score
1 | GGGCGAGA | -0.0995
2 | TCAATTCA | 0.162
3 | GCCTCCTA | -0.182
4 | CCGCGAGG | -0.155
5 | CTCTTCGA | 0.0693
6 | AGCGGACG | -0.0881
7 | AGTCTCCC | -0.225
8 | GTACGGTA | 0.193
9 | GGCAGGAA | -0.216
10 | ATCCGAAA | 0.203
11 | ACCAAGAC | 0.0883
12 | GAGGCGGC | -0.144
13 | ACTGGTGC | -0.0655
14 | GTAGGGAC | -0.195
15 | TAGCCTAA | 0.0539
16 | CATATGAG | -0.00619
17 | AGTGGTCG | -0.159
18 | TAGTTCAA | 0.105
19 | CCTATACG | -0.0637
20 | GGAGTCCC | -0.366
21 | AACTCACG | -0.0165
22 | TAGTGAGA | 0.0389
23 | AAAAAATG | 0.248
24 | GTTATAGA | 0.13
25 | GGGAAGGA | -0.173

Row | Sequence | PBM E-score
26 | CGGCGGTA | 0.0302
27 | CCAACGGC | -0.196
28 | ATCTAACA | 0.18
29 | ATGGAGCG | 0.0157
30 | CCCTATAC | -0.128
31 | CCCGGTGC | -0.314
32 | CGGAAGCA | 0.173
33 | ATCGGACA | -0.0956
34 | ACCCCAAG | -0.132
35 | ATTGGCGG | -0.113
36 | GCGGCTGA | -0.265
37 | TCCGCAAA | 0.132
38 | CGGATTAG | -0.0597
39 | AAGATCTA | -0.0135
40 | AACGTCCA | 0.0814
41 | GACCTTAC | -0.0749
42 | CGTGAATA | 0.0271
43 | CCTGTTAG | 0.0468
44 | ACTCGTAA | 0.212
45 | ATCTGGCG | 0.0347
46 | CCAACAGC | -0.0246
47 | GAGGCGGA | -0.102
48 | AAGTACCC | -0.101
49 | CATATATC | 0.117
50 | AGGTGTAA | 0.186

Row | Sequence | PBM E-score
51 | CGCTGGTC | -0.314
52 | ATCTCTGG | -0.0166
53 | CCAGACAG | -0.0789
54 | TGGTGACA | 0.106
55 | ATCGCGAT | 0.0181
56 | ACTCCCCT | -0.002
57 | CGCCACAA | 0.0276
58 | GATCCTAC | 0.0816
59 | CAAAGTGC | -0.0492
60 | CTGTGGCA | -0.0619
61 | TAGATCCA | 0.128
62 | GGGGCCGA | -0.354
63 | ACTATCAC | 0.0981
64 | AAGGTACT | 0.129
65 | TCGCCACA | -0.0342
66 | CGTGATTC | -0.164
67 | ACGGGGGC | -0.406
68 | CCTTTGAA | -0.0418
69 | CATAGTAA | 0.257
70 | ATCCAACG | -0.0473
71 | AATGCATT | 0.31
72 | ACCCAGTG | -0.27
73 | AAGGAAAC | 0.0412
74 | GAATCCAA | 0.156
75 | GACGGGAC | -0.287

Row | Sequence | PBM E-score
76 | ACACACTA | 0.156
77 | CGGAGAGA | 0.0441
78 | AGGCGAAA | -0.0543
79 | TAGCGATA | 0.049
80 | CAGGATGG | 0.0328
81 | CAGGTTAC | -0.143
82 | AACCATGA | 0.234
83 | ACATTGGC | -0.0146
84 | CATCTTCC | 0.0897
85 | ACCGTCGT | 0.0541
86 | CACCGGAC | -0.115
87 | GGGCGAAC | 0.0259
88 | CGGGCGAA | -0.0653
89 | GTCGGTTA | 0.0246
90 | AAGCGAAC | -0.0444
91 | ATACGACC | -0.111
92 | CGCGCTCA | -0.0589
93 | CTATTTCA | 0.15
94 | CTGGGCTA | -0.212
95 | AAATCATA | 0.254
96 | AGCGACGG | -0.117
97 | ACGAGCAG | -0.0359
98 | CGCCAGGA | -0.00607
99 | CGCCAGCG | -0.122
100 | AAGGTTTA | 0.0965

Row | Sequence | PBM E-score
101 | ACATGATC | 0.122
102 | TTGTGAAA | 0.097
103 | GAATTGCC | -0.0185
104 | ATATTCCC | 0.329
105 | ATCAACTA | 0.25
106 | GCAAAGGA | 0.118
107 | ACATACCC | 0.107
108 | CAAGAGGA | 0.0563
109 | GACCAACC | -0.227
110 | AAAGCAGA | 0.131
111 | ATCTTCTA | 0.142
112 | AAGGGTCA | -0.229
113 | CACCCTGC | -0.128
114 | ACGGAAGC | -0.187
115 | TACCTCAA | 0.0553
116 | GCATTCCC | -0.0728
117 | CCGGGAAA | 0.0693
118 | AAAGCATG | -0.0195
119 | ATTATGCA | 0.084
120 | GGGAGGGA | -0.0948
121 | GATTTGGA | 0.0122
122 | CATAAATC | 0.146
123 | GAGTAACA | 0.162
124 | ATGTCCGA | -0.124
125 | AATGGGGC | -0.212

Row | Sequence | PBM E-score
126 | AGTGGACC | -0.195
127 | CAGGGATG | -0.053
128 | CTGTAACC | 0.104
129 | CATTAAAC | 0.13
130 | CGATTTAA | 0.185
131 | GCTCTCCC | -0.357
132 | AAAATATT | 0.364
133 | ACTAGGCG | 0.181
134 | CGAATCGA | 0.174
135 | TGCAAACA | -0.0192
136 | ATCCCGCG | 0.122
137 | CGTTGCTC | -0.229
138 | GTTGTAGA | 0.00414
139 | AAGCAGAT | 0.0856
140 | CGTGTCTC | -0.11
141 | ACGATACC | 0.076
142 | ATGTCACC | 0.0486
143 | TGCGATAA | 0.255
144 | CGTACACA | 0.11
145 | ATGTAGAA | 0.104
146 | CACAGTTA | 0.142
147 | CAATCAAG | -0.0201
148 | AAATCGCC | -0.0689
149 | CGAAAAGA | 0.258
150 | CTCGTGGA | -0.00292

Row | Sequence | PBM E-score
151 | GAGCGTGA | -0.279
152 | ATAAGGCA | 0.0348
153 | CGTACGCC | -0.159
154 | GGGAGCTA | -0.29
155 | ATGAGTTG | 0.0869
156 | AAAAATTA | 0.302
157 | CTGTCACA | -0.202
158 | GAAAGCCA | -0.136
159 | ATGCGTGC | 0.0457
160 | GAATGTCC | 0.0427
161 | TAGCTGGA | -0.149
162 | AACTTTAA | 0.183
163 | ATGAAGAC | 0.00879
164 | AAGGATCA | 0.207
165 | TGAGCTCA | 0.0873
166 | AATGTCCG | -0.0271
167 | AGACTGGA | 0.0391
168 | CACATGTG | -0.0982
169 | CATCAACA | 0.115
170 | AGTTACTG | 0.0336
171 | CCCTCAGG | -0.05
172 | ACTGAAAT | 0.0947
